Results on 1 compound are retold here after paper PMC9026286, “Bacterial Lipodepsipeptides and Some of Their Derivatives and Cyclic Dipeptides as Potential Agents for Biocontrol of Pathogenic Bacteria and Fungi of Agrarian Plants” (Journal of Agricultural and Food Chemistry, 2022).

The assay deals with Escherichia coli DH5α. The settings on record: 48 h. How it is done: The antimicrobial assay was carried out as described in Bassarello et al. (2004)[20] with some modifications. Bacteria were grown in LB broth at 25 or 37 °C overnight at 150 rpm. A total of 500 μL of a suspension containing about 10^8 cfu mL^–1 were added to 3 mL of LB soft agar (0.7%) and poured onto plates containing 7 mL of LB broth with agar 1.8%. […] After 24 ± 48 h of incubation at 25 or 37 °C, the end serial dilution inhibiting the growth of the bacteria in the area of application of 10 μL solutions was recorded. The plates containing the bacteria alone were used as a control. The experiment was performed in triplicate.

≈ marks a conversion by molar mass, not a printed value.

With `CC(C)C[C@@H]1NC(=O)[C@@H]2CCCN2C1=O` [compound 13, cyclo(L-Pro-L-Leu)], the MIC turned out to be 300 µg/mL (≈ 1430 µM).
